Reference: PubChem BioAssay AID1030 (National Center for Advancing Translational Sciences (NCATS), 2008)
Hit rate of the full screen: of about 220,000 compounds, about 16,000 (7.3%) were called active. Inconclusive results, whose numbers are uncertain, are shown with a selection of clear calls. The call rests on the fitted dose curve; in most records, active means well fitted inhibition curve with a large enough effect (not every such curve was filed as active); inconclusive means small, poorly fitted or top-dose-only effect, or another doubt; inactive means no such curve, though single readings can be large or run the other way. Potencies of inconclusive entries are left out as doubtful fits.

Biological target: Aldehyde dehydrogenase 1A1 (Homo sapiens) (UniProt P00352)
Chain of UniProt P00352 (P00352 whole entry, looked up): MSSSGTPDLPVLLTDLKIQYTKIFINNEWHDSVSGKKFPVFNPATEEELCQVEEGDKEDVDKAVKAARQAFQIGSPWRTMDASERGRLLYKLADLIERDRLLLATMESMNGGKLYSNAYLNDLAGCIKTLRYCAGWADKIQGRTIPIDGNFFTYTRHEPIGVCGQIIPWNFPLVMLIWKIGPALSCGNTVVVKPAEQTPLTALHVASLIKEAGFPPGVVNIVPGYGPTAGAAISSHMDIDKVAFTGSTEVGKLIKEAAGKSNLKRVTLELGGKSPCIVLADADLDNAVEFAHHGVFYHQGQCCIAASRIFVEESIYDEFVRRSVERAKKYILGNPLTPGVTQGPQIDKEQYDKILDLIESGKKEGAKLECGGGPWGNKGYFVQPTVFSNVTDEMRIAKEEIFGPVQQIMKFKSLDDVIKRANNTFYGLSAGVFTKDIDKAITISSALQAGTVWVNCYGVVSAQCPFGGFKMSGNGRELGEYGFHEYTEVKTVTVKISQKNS
Assay: qHTS Assay for Inhibitors of Aldehyde Dehydrogenase 1 (ALDH1A1);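 on activity, negative = inhibition: plate controls were no enzyme wells and a reference inhibitor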
Conditions: Purified ALDH1A1, NADH fluorescence, propionaldehyde substrate; series mostly up to 75.3 µM
Potency means the concentration at half of the fitted maximal effect; tags describe the fitted curve by direction and shape.

| Compound | Potency | activity, negative = inhibition |
| --- | --- | --- |
| CCOc1ccc2[nH]c(O)c(NC(C)=O)c2c1 | inactive |  |
| Cc1nc2ccc(NC(=O)N3CCSCC3)cc2nc1C | inconclusive [inhibitor, single point] |  |
| Cc1cc(C)nc(Nc2nc(C)c3cc4c(cc3n2)OCO4)n1 | inconclusive [inhibitor, partial curve] |  |
| Cc1ccccc1NC(=O)/C(=C/c1ccccc1)c1ccccc1 | inactive |  |
| CO/N=C/c1ccc(N2CCN(C(=O)c3cccc(Cl)c3)CC2)c([N+](=O)[O-])c1 | inconclusive [inhibitor, partial curve] |  |
| COc1cc2c(cc1OC)C(C(C)C)=NC(C)(C)C2 | inconclusive [inhibitor, partial curve] |  |
| CC(C)NC(=S)N/N=C1\CCCCc2ccccc21 | inconclusive [inhibitor, single point] |  |
| CCCC(=O)Nc1cccc2c1CCCC2 | inconclusive [inhibitor, partial curve, poor fit] |  |
| CCn1c(CCC(=O)Nc2cc(F)ccc2C)nc2cc(S(=O)(=O)N(C)C)ccc21 | inconclusive [inhibitor, single point] |  |
| CS(=O)(=O)N1CCN(c2ccccc2NC(=O)c2ccc(Br)o2)CC1 | active: 3.16 µM |  |
| CCN1C(=O)c2ccc(C(=O)Nc3nccs3)cc2C1=O | active: 4.47 µM |  |
| C#CCn1cnc2c(cnn2-c2ccc(C)c(C)c2)c1=O | active: 14.1 µM |  |
| CCCCN1/C(=C/c2ccc3ccccc3[n+]2CC)Sc2ccccc21 | inconclusive [inhibitor, partial curve] |  |
| CC(CSc1nnnn1-c1ccccc1)Cn1c(N2CCN(C)CC2)nc2c1c(=O)[nH]c(=O)n2C (configuration not stated) | active: 20 µM |  |
| Clc1ccccc1Cn1nnc2c(NCC3CC3)ncnc21 | inconclusive [inhibitor, single point] |  |
| CCCc1nc2ccccc2c(NC(=O)CN(CC)CC)c1CC | inconclusive [inhibitor, partial curve] |  |
| O=C(Nc1ccc2c(c1)OCO2)c1cccc(Cl)c1 | inactive |  |
| CC(=O)OC1C=C[C@]2(C)C(CC(OC(C)=O)[C@@]3(C)C4=CC(=O)OC(c5ccoc5)[C@]4(C)CCC23)C1(C)C (some centres not stated) | inactive |  |
| Cc1ccsc1/C=N/n1c(C2CCCCC2)n[nH]c1=S | inconclusive [inhibitor, single point] |  |
| COc1ccc(Cn2nnnc2CN2CCC(O)(c3ccccc3F)CC2)cc1 | active: 8.91 µM |  |
| Cc1ccc(C2OC34CCCCCC3C(C#N)(C(=N)O4)C2(C#N)C#N)cc1 (configuration not stated) | inconclusive [inhibitor, partial curve] |  |
| COc1cc(/C=C2\SC(=Nc3c(C)n(C)n(-c4ccccc4)c3=O)NC2=O)ccc1O | inactive |  |
| Cc1ccccc1C1CC(=O)Oc2ccc(C(C)(C)C)cc21 (configuration not stated) | inconclusive [inhibitor, partial curve, poor fit] |  |
| O=C(COC(=O)c1ccc2c(c1)S(=O)(=O)N=C1CCCCCN12)NCc1cccs1 | active: 14.1 µM |  |
| CCNc1ncc2ncc(=O)n(C3CC3)c2n1 | inconclusive [inhibitor, partial curve] |  |
| CCCCn1nc2cc(C(=O)NCc3ccccc3)ccc2c1OCC | inconclusive [inhibitor, partial curve] |  |

| Compound | Potency | activity, negative = inhibition |
| --- | --- | --- |
| CCOCCCNC(=O)CN1CCN(c2ccc(F)cc2)CC1 | inconclusive [inhibitor, partial curve] |  |
| CCCN(Cc1ccccc1)C(=S)Nc1cccc(C(F)(F)F)c1 | inactive |  |
| CC12CC3(C)CC(C)(C1)CC(C(=O)NC(=S)NC(C)(C)C)(C2)C3 | inconclusive [inhibitor, single point] |  |
| Cc1nnc(NC(=O)CCC(=O)NCc2cccs2)s1 | inactive |  |
| CC(C)c1ccc(CN(C(=O)c2cc3ccccc3oc2=O)C2CCS(=O)(=O)C2)cc1 (configuration not stated) | inconclusive [inhibitor, single point] |  |
| Cc1ccc(S(=O)(=O)NCc2ccncc2)cc1C | inactive |  |
| CO/N=C(\C(=O)N[C@@H]1C(=O)N2C(C(=O)O)=C(COC(N)=O)CS[C@@H]12)c1ccco1 | inactive |  |
| CCCn1c(=O)c(C(=O)NCc2cccnc2)c(O)c2ccccc21 | inactive |  |
| Cc1cc(C)nc(NC(=O)C(c2ccccc2)c2ccccc2)n1 | inactive |  |
| Cn1c2ccccc2c2c(C(=O)N3CCN(C(=O)c4ccco4)CC3)cn(C3CCCCC3)c(=O)c21 | inconclusive [inhibitor, single point] |  |
| NC(=O)c1nn(-c2ccccc2)nc1N | inconclusive [inhibitor, full curve] |  |
| O=C(CN1C(=O)COc2ccccc21)NCCCN1CCc2ccccc2C1 | inactive |  |
| O=C(O)/C=C/C(=O)Nc1ccc(SC(F)(F)F)cc1 | inconclusive [inhibitor, partial curve] |  |
| Cn1c(=O)c2c(nc(CN3CCOCC3)n2CCN2CCOCC2)n(C)c1=O | inconclusive [inhibitor, single point] |  |
| Cc1ccc(S(=O)(=O)N2CCCCC2)cc1NC(=O)CSc1ccc2c(c1)OCCO2 | inconclusive [inhibitor, single point] |  |
| CCCCc1c(O)nc(SCCC(=O)O)[nH]c1=O | inactive |  |
| COc1ccc(CC(=O)c2ccc(OC)c(OC)c2)cc1 | inactive |  |
| CCCNC(=O)CSc1nc2ccc(OCC)cc2s1 | inactive |  |
| CSc1ncccc1C(=O)OCC(=O)c1cccs1 | inactive |  |
| COc1ccc2c(C)nc(Nc3nc(C)c(C)c(=O)[nH]3)nc2c1 | inconclusive [inhibitor, partial curve] |  |
| COc1ccc(-c2nc(C#N)c(NCC3CCCO3)o2)cc1OC (configuration not stated) | inconclusive [inhibitor, partial curve] |  |
| COC(=O)C1=C(C(=O)OC)[C@@H]2Nc3ccccc3[C@@]23C[C@@H](C(=O)OC)N=C3N1 |  | inactive: 12.5% [at 13.5 µM] |
| C=CCNC(=S)NNC(=O)c1csc(C)c1CC | inactive |  |
| N#Cc1nc(-c2ccc(OCc3ccccc3)cc2)oc1NCc1ccco1 | inconclusive [inhibitor, partial curve] |  |
| COc1ccc(/C=N/Nc2ncc(Br)cn2)c(OC)c1 | inactive |  |
| Cc1ccc(-n2nc(-c3ccccc3)cc2Nc2ccccc2N)cc1 | inactive |  |

| Compound | Potency | activity, negative = inhibition |
| --- | --- | --- |
| O=C(O)C1C2C=CC(O2)C1C(=O)NCc1ccc2c(c1)OCO2 (configuration not stated) | inactive |  |
| COc1ccc(-n2ncc3c(NCC4CCCO4)ncnc32)cc1 (configuration not stated) | inconclusive [inhibitor, partial curve] |  |
| Clc1cncc(Cl)c1NNc1c2ccccc2nc2ccccc12 | inconclusive [inhibitor, partial curve] |  |
| COc1cccc(CN2CCN(C(=O)c3cccc4ccccc34)CC2)c1OC | inconclusive [inhibitor, single point] |  |
| Nc1nc2c(ncn2[C@@H]2O[C@H](CO)[C@@H](O)[C@H]2O)c(=O)[nH]1 | inactive |  |
| O=C(NCCN1CCOCC1)c1ccc(N2CCCC2)c([N+](=O)[O-])c1 | active: 15.8 µM |  |
| CCN1C(=O)C(CC(=O)Nc2ccc(OC)cc2)N(CCc2ccc(F)cc2)C1=S (configuration not stated) | active: 14.1 µM |  |
| O=S(=O)(Nc1ccc2c(c1)nc1n2CCN(Cc2ccccc2)C1)c1ccc(F)cc1 | inconclusive [inhibitor, single point] |  |
| Cn1c2c(c(=O)n(C)c1=O)NC1(N2)C(=O)Nc2ccccc21 (configuration not stated) | inconclusive [inhibitor, single point] |  |
| COc1ccc2cc(CN(CCCN3CCOCC3)Cc3nnnn3C3CCCCC3)c(=O)[nH]c2c1 | active: 12.6 µM |  |
| CCC1=C2CC[C@H]3C(=O)N(CC)C(=O)[C@H]3[C@H]2[C@@]2(C)C(=O)N(CC(=O)OC)C(=O)N2C1=O | active: 17.8 µM |  |
| Clc1cnccn1 | inactive |  |
| CCOC(=O)NN1C(=O)c2ccccc2NC1(C)C | inconclusive [inhibitor, partial curve] |  |
| CCOC(=O)C1CCN(C(C)=C2C(=O)c3ccccc3C2=O)CC1 | active: 17.8 µM |  |
| CCn1c(SCC(=O)Nc2ccc3c(c2)OCO3)nnc1-c1ccccc1O | inconclusive [inhibitor, single point] |  |
| CCCCOc1ccc(Cc2n[nH]c(=S)n2N)cc1 | inactive |  |
| Nc1ccc(CSc2ccc(Cl)cc2)cc1 | inconclusive [inhibitor, single point] |  |
| CC(C)=CCC/C(C)=C/CO/N=C1/C[C@@H](O)[C@@H](O)[C@@H]2[C@@H]3C(=O)N(C4CCCCC4)C(=O)[C@H]3CC[C@H]12 |  | inactive: -1.76% [at 13.5 µM] |
| O=C(CN1CCOCC1)NC1CC2CCC1C2 (configuration not stated) | active: 25.1 µM |  |
| O=C1c2ccccc2NC(c2cccc(O)c2)N1NS(=O)(=O)c1ccccc1 (configuration not stated) | inconclusive [inhibitor, partial curve] |  |
| CCN(CC)C(=O)c1ccc2nc(-c3ccccc3)c(-c3ccccc3)nc2c1 | inconclusive [inhibitor, partial curve] |  |
| COc1ccccc1CNc1ncncc1-c1ccccc1C | inconclusive [inhibitor, single point] |  |
| O=C(Oc1ccc(C(=S)N2CCOCC2)cc1)c1ccccc1 | inactive |  |
| O=S(=O)(NNc1ccc(Cl)nn1)c1ccc(F)cc1 | active: 28.2 µM |  |
| O=C(C1CCN(C2CC(=O)N(c3cccc(Cl)c3)C2=O)CC1)N1CCCCCC1 (configuration not stated) | active: 20 µM |  |
